The text below walks through data of paper PMC4336329 (PLoS ONE, 2015).

In all, about 310,000 compounds went through this assay and about 14,000 (4.5%) showed an effect of 50% or more. The effect is printed as a negative number. Some of the results follow.
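Also: peak tail current of the secondary pulse compared with the same well before compound.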

In this test the target is human ether-à-go-go-related gene (hERG) potassium channel (human, UniProt Q12809). As to the kind of experiment: primary screen, population patch clamp on CHO cells stably expressing hERG.
Sequence of human ether-à-go-go-related gene (hERG) potassium channel (Q12809 whole entry, looked up): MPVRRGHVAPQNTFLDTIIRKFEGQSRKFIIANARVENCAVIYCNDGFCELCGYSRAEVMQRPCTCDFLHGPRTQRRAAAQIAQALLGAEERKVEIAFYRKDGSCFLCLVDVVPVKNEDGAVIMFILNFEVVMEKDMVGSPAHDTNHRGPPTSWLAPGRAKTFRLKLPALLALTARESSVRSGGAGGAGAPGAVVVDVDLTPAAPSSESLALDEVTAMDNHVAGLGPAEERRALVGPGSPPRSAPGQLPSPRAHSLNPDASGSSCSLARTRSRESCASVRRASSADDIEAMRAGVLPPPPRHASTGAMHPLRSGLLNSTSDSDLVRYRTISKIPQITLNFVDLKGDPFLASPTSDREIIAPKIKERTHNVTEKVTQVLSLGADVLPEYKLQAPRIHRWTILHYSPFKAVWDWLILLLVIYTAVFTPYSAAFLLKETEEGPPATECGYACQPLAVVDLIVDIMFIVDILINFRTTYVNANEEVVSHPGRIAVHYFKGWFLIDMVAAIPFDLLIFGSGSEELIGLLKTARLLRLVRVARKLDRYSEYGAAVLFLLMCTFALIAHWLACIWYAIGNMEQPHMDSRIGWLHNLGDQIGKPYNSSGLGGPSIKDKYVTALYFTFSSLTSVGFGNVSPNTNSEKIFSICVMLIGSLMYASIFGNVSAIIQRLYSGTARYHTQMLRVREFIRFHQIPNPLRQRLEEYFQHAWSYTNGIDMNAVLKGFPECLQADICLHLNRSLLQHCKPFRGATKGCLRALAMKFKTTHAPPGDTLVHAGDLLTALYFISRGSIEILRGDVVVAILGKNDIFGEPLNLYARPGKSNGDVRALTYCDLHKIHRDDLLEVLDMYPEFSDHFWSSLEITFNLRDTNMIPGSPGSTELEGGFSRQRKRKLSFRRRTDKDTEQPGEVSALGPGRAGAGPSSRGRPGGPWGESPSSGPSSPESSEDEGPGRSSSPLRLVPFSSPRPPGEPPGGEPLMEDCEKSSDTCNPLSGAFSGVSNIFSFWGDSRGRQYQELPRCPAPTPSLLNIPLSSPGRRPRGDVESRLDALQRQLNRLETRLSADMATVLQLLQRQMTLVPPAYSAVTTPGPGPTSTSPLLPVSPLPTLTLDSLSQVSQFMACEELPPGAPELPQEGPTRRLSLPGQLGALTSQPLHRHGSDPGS
For `O=C(Cc1cc(=O)[nH][nH]1)N/N=C/c1cccc2ccccc12`, the “hERG current change (%, negative = inhibition) at 10uM” value came out at 11.4%.
As to `COc1ccc(NC(=O)NNC(=O)C(C)Oc2ccc3ccccc3c2)cc1` (centres unmarked), the “hERG current change (%, negative = inhibition) at 10uM” value is 8.34%.
The same measure for `CSc1ccccc1C(=O)NCCS(=O)(=O)N1CCN(c2ccc(F)cc2)CC1`: -67.6%.
The same measure for `CCCCOC(=O)NC(NCC(O)c1ccccc1)(C(F)(F)F)C(F)(F)F` (centres unmarked): 6.78%; for `CCOC(=O)NC(Nc1sc2c(c1C(N)=O)CCCC2)(C(=O)OCC)C(F)(F)F` (centres unmarked): -13.4%; for `CSc1ccc(C(=O)/C=C/c2ccc(N)cc2)cc1`: 11.3%.
For `COc1ccc(CNC(=O)CN(C)S(=O)(=O)c2ccc3c(c2)n(C)c(=O)c(=O)n3C)cc1` the value was 17.4%; for `COc1ccc(NC(=O)CSc2nnc(-c3ccccn3)n2-c2ccccc2)cc1OC`, -10.1%; for `CCOc1ccc(NC(=S)NCCCn2ccnc2)cc1`, -14.2%.
Turning to `O=C(COc1ccc(/C=N/NS(=O)(=O)c2ccccc2)cc1)Nc1ccccc1`, the “hERG current change (%, negative = inhibition) at 10uM” value was -22.4%.
The same measure for `CC1(c2ccc(OC(F)F)cc2)NC(=O)N(CC(=O)NCCC2=CCCCC2)C1=O` (centres unmarked): -12.7%; for `CCCCC(=O)OCC(=O)N1N=C(c2c[nH]c3ccccc23)C(O)C1c1ccc(OC)cc1` (centres unmarked): 19.5%.
For `CCNS(=O)(=O)c1ccc(C(=O)OCC(=O)N2CCCc3ccccc32)cc1` the value was -45%.
For `Fc1ccc(-c2nc(-c3cccs3)[nH]c2-c2ccc(F)cc2)cc1` the value was 0.797%.
As to `Cc1cc(Cl)c(OCCCN(C)C)c(Br)c1.O=C(O)C(=O)O`, the “hERG current change (%, negative = inhibition) at 10uM” value is on record as -40.4%.
For `CCOc1ncccc1C(=O)NCCc1ccc(S(N)(=O)=O)cc1` the value was 5.54%; for `CC(C)C1N(C(=O)CN2CCCCC2)CCN1S(=O)(=O)c1ccccc1` (centres unmarked), 8.02%.
For `COC(=O)C1=C(C)N(CCCC(=O)O)C(=O)NC1c1ccc(C(F)(F)F)cc1` (centres unmarked) the value was -9.41%; for `CC1(C)CC(=O)C2=C(C1)N=C1SCCC(=O)N1C2c1cccc([N+](=O)[O-])c1` (centres unmarked), -21.1%.
With `COc1cc(OC)cc(C(=O)NC(=S)NNC(=O)Cc2cccs2)c1`, the “hERG current change (%, negative = inhibition) at 10uM” value amounted to 17.4%.
The same measure for `N#CCCN(Cc1cccnc1)C(=O)Nc1ccccc1`: -3.06%; for `Cc1ccc(C)c(OCc2cc(C(=O)N3CCN(c4ccccc4C)CC3C)no2)c1` (centres unmarked): -2.69%.
For `COC(CNC(=O)CC1C(=O)N(Cc2ccccc2)C(C)c2nc3ccccc3n21)OC` (centres unmarked) the value was 9.2%; for `CCN1CCN(C(=O)Cn2cnc3sc(C)c(S(=O)(=O)N4CCN(c5ncccn5)CC4)c3c2=O)CC1`, 14.6%.
As for `CCOC(=O)N/N=C/c1c(C)nn(-c2cccc(C(F)(F)F)c2)c1Cl`, the “hERG current change (%, negative = inhibition) at 10uM” value is given as -10.3%.
For the molecule `Cc1ccsc1/C=C1\Oc2cc(OCC(=O)c3ccccc3)ccc2C1=O`, the “hERG current change (%, negative = inhibition) at 10uM” value stood at 2.64%.
With `Cc1cccc(NS(=O)(=O)c2cccc(C(=O)NCc3ccccc3CN3CCOCC3)c2)c1`, the “hERG current change (%, negative = inhibition) at 10uM” value is -26%.
The same measure for `O=C(NCCc1c[nH]c2ccccc12)C(=O)NCC(c1ccco1)N1CCN(c2ccc(F)cc2)CC1` (centres unmarked): 7.65%; for `COc1cccc(CNC(=O)C2CCCN(c3nc4ccccc4o3)C2)c1` (centres unmarked): -16.9%; for `CCCN1C(=O)c2cc(C(=O)Nc3ccccc3CC)ccc2C1O` (centres unmarked): 2.3%.
The same measure for `CCC(C)c1ccc(OCCN2CCCC2)cc1` (centres unmarked): -15.4%; for `C=CCn1c(SCC(=O)N2CCc3ccccc3C2)nc2sc(C)c(C)c2c1=O`: -16.9%; for `Cc1nn(C(C)C(=O)Nc2ccccc2Cl)c(=O)c2nn(-c3ccccc3)c(C)c12` (centres unmarked): -29%.
The same measure for `C=CCN1C(=O)NC(=O)/C(=C/c2cc3c4c(c2)CCCN4CCC3)C1=O`: -10.2%; for `O=C(N/N=C/c1ccccc1F)c1cccc(NC(=O)c2ccccc2Cl)c1`: -11.2%.
For the molecule `Cc1cccc(N(CC(=O)N/N=C/c2cc([N+](=O)[O-])ccc2Cl)S(C)(=O)=O)c1C`, the “hERG current change (%, negative = inhibition) at 10uM” value is -15.1%.
In the case of `Cc1ccc(C)c(OCC(=O)O/N=C(\N)c2cccnc2)c1`, the “hERG current change (%, negative = inhibition) at 10uM” value is listed as 2.74%.
The same measure for `O=S(=O)(Cc1ccccc1Cl)N1CCCCC1`: 1.5%; for `NC(=O)C1CCN(C(=O)c2ccc3nc(-c4ccccc4)c(-c4ccccc4)nc3c2)CC1`: -20%; for `C1CCC(C(CC2CCCCN2)C2CCCCC2)CC1.O=C(O)/C=C\C(=O)O` (centres unmarked): -22.6%.
Regarding `CCOC(=O)C1CCN(C(=O)c2ccc(OCC)c(OCC)c2)CC1`, the “hERG current change (%, negative = inhibition) at 10uM” value was -79.4%.
The same measure for `CCNc1nc(NCC)n2c(SCC(=O)Nc3ccc(NC(C)=O)cc3)nnc2n1`: -17.8%; for `COc1ccc(C(=O)C2CCN(C(=S)Nc3ccc(F)cc3)CC2)cc1`: -46.9%.
The same measure for `Cc1ccc(Sc2ccc(N)cn2)cc1`: 10.4%.
